Source: article PMC4336329 (PLoS ONE, 2015)
The whole screen tested about 310,000 compounds, of which about 2,200 (0.71%) showed an effect of 50% or more. Effects have a minus sign here. The list shows a part of the results.

biological target: human ether-à-go-go-related gene (hERG) potassium channel (human, UniProt Q12809); assay: primary screen, population patch clamp on CHO cells stably expressing hERG
Sequence (Q12809 whole entry, looked up): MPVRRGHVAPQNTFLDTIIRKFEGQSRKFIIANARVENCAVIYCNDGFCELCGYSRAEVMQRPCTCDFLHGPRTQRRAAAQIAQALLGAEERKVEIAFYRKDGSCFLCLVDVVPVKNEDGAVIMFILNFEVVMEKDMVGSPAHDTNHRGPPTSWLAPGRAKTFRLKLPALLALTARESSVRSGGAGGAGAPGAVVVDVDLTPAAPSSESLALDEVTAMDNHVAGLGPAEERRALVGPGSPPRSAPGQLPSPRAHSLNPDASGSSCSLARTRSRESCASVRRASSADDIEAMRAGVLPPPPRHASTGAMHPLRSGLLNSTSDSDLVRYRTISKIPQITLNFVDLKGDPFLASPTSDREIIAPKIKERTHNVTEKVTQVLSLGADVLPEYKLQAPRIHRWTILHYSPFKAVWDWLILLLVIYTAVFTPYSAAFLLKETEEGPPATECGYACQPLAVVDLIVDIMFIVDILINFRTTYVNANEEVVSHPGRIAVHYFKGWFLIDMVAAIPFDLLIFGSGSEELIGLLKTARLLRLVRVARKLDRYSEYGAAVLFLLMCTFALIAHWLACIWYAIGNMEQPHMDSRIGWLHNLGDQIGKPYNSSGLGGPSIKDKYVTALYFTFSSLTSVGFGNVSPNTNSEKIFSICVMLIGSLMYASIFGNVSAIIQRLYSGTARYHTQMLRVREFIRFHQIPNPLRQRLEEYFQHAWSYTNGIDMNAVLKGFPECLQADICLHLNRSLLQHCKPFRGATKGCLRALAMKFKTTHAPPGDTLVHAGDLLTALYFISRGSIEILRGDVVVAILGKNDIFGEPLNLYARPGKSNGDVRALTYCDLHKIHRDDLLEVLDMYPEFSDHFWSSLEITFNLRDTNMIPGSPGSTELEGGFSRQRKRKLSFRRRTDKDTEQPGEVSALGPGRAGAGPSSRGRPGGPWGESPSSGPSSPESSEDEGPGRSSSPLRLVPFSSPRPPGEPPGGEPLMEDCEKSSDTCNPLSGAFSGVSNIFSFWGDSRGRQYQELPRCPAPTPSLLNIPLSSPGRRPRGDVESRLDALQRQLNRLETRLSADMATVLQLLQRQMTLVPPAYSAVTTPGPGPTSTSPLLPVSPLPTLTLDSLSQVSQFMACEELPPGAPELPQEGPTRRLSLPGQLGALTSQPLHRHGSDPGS

First: CCOC(=O)c1c(N)sc(C(=O)N2CCCCC2)c1C
Second: CCOC(=O)/C=C1\SCC(=O)N1CC(=O)N1CCOCC1
The “hERG current change (%, negative = inhibition) at 1uM” value of the first is lower: 10.9% for the first, 16.4% for the second.

Going from `Cc1c(Cl)cccc1NC(=O)Nc1ccc(C(N)=O)cc1` to `O=C(N/N=C/c1cccc(NC(=O)c2ccc(Cl)cc2)c1)c1ccc(O)cc1`, the “hERG current change (%, negative = inhibition) at 1uM” value rises from 6.56% to 13.8%.

Going from `COc1cc(C2Nc3ccccc3NC3=C2C(=O)CC(C)(C)C3)cc(OC)c1OC(C)=O` (centres unmarked) to `CCn1c(SCc2nc3cc(OC)c(OC)cc3c(=O)[nH]2)nc2ccccc21`, the “hERG current change (%, negative = inhibition) at 1uM” value falls from 15.1% to 9.52%.

Going from `COCCNC(=O)Cn1cc(C=C2C(=O)NC(=O)NC2=O)c2ccccc21` to `O=C(Cn1[nH]c(=O)c2ccccc2c1=O)NNC(=O)c1ccccc1`, the “hERG current change (%, negative = inhibition) at 1uM” value rises from 6.52% to 11.6%.

Going from `COc1cc(C(=O)Nc2cccc(-c3cn4cccnc4n3)c2)cc(OC)c1OC` to `COc1ccc(-c2cc(-c3ccccc3)nc(Cl)n2)cc1OC`, the “hERG current change (%, negative = inhibition) at 1uM” value rises from 6.58% to 13%.

First: CCN(CC(=O)Nc1ccc(OC)cc1)CC(=O)Nc1cccc(C#N)c1
Second: CCn1c(SCC(=O)Nc2cccc(NC(C)=O)c2)nc2c([nH]c3ccccc32)c1=O
The “hERG current change (%, negative = inhibition) at 1uM” value of the first is higher: 15.1% for the first, 8.06% for the second.

Compared with `O=C(Nc1ccc(-n2ccnc2P(=O)(O)c2ccccc2)cc1)c1ccccc1Br`, `O=C(O)c1cc(S(=O)(=O)Nc2cccc(Oc3ccccc3)c2)ccc1Br` is higher in “hERG current change (%, negative = inhibition) at 1uM” value: -8.32% for the first, 15% for the second.

Compared with `COc1ccccc1NS(=O)(=O)c1ccccc1C#N`, `Cc1ccc(NS(=O)(=O)c2ccccc2)c2c1CC(C)(C)O2` is lower in “hERG current change (%, negative = inhibition) at 1uM” value: 16.9% for the first, 4.5% for the second.

Compared with `CCCOC(=O)Oc1ccc2c(=O)c(Oc3cc(C)cc(C)c3)coc2c1`, `COc1cc(OC)cc(C(=O)Nc2ccccc2NC(C)=O)c1` is higher in “hERG current change (%, negative = inhibition) at 1uM” value: -0.172% for the first, 11.7% for the second.

Compared with `O=C(CN1CCN(Cc2ccccc2)CC1)c1ccccc1`, `CS(=O)(=O)N(CC(=O)N1CCN(Cc2ccccc2)CC1)c1ccccc1F` is lower in “hERG current change (%, negative = inhibition) at 1uM” value: 10.8% for the first, 0.156% for the second.

Going from `CCCCn1c(O)c(C(C)=NCCN2CCOCC2)c(=O)[nH]c1=O` to `CCCn1c(=O)[nH]c(=O)c2c1nc(-c1ccc(OC(F)F)c(OC)c1)n2CCOC`, the “hERG current change (%, negative = inhibition) at 1uM” value rises from -1.69% to 2.4%.

Compared with `CCN(CC)S(=O)(=O)c1ccc(N)cc1`, `CCN(CC)S(=O)(=O)c1cccc(NC(=O)c2cc(=O)[nH]c3ccccc23)c1` is lower in “hERG current change (%, negative = inhibition) at 1uM” value: 4.31% for the first, -4.29% for the second.

First: O=C(/C=C/c1cnc2ccccc2n1)NC12CC3CC(CC(C3)C1)C2
Second: CCOC(=O)Nc1nc2ccccc2s1
The “hERG current change (%, negative = inhibition) at 1uM” value of the first is lower: 1.96% for the first, 3.32% for the second.

First: CC1(C)CNC(=O)c2sc(NC(=O)c3ccccc3)nc2C1
Second: CC(C)(C)c1cc(C(=O)NCc2ccccc2)ccn1
The “hERG current change (%, negative = inhibition) at 1uM” value of the first is lower: 8.38% for the first, 12.9% for the second.

Compared with `C=CCNC(=O)c1cc(=O)c2ccccc2o1`, `O=C(O)c1ccccc1C(=O)NCc1ccc2c(c1)OCO2` is lower in “hERG current change (%, negative = inhibition) at 1uM” value: 9.42% for the first, 3.77% for the second.

First: CCOC(=O)C1CCCN(S(=O)(=O)c2ccc3c(c2)NC(=O)CO3)C1 (centres unmarked)
Second: C/C(=N\NC(=O)c1cccc(S(=O)(=O)N2CCCC2)c1)c1ccc(C)cc1
The “hERG current change (%, negative = inhibition) at 1uM” value of the first is higher: 9.8% for the first, -7.15% for the second.

Going from `CCOC(=O)Cc1nc(-c2ccccc2)n[nH]1` to `Cc1nnc(SCc2ccccc2)n1N`, the “hERG current change (%, negative = inhibition) at 1uM” value falls from 16% to 11.6%.

Compared with `CCC(C)NC(=O)[C@@H]1CSC2c3ccccc3C(=O)N21` (some centres unmarked), `CCC(C)NC(=O)COc1ccccc1[N+](=O)[O-]` (centres unmarked) is higher in “hERG current change (%, negative = inhibition) at 1uM” value: 9.7% for the first, 11.6% for the second.

Compared with `COc1cccc(OC)c1C(=O)NC(=O)Nc1c(F)cc(F)cc1F`, `COc1ccc(-c2csc(NC(=O)C3CCN(C(=O)c4ccc(F)cc4)CC3)n2)cc1OC` is lower in “hERG current change (%, negative = inhibition) at 1uM” value: 14.6% for the first, 1.61% for the second.

First: CC1CCCC/C1=N/Nc1ccc([N+](=O)[O-])cc1[N+](=O)[O-] (centres unmarked)
Second: CC1CCc2c(sc(NC(=O)c3ccc(-c4ccccc4[N+](=O)[O-])o3)c2C#N)C1 (centres unmarked)
The “hERG current change (%, negative = inhibition) at 1uM” value of the first is lower: 4.88% for the first, 17.2% for the second.

First: Cc1nn(C(=O)c2cccnc2)c(C)c1Sc1ccc(Br)cc1
Second: CC(C)(C)C(=O)Nc1ccccc1C(=O)Nc1cccnc1
The “hERG current change (%, negative = inhibition) at 1uM” value of the first is lower: -6.21% for the first, 6.51% for the second.

First: O=C(NC1=NCCS1)C1CCN(S(=O)(=O)c2ccccc2C(F)(F)F)CC1
Second: CC1CCN(S(=O)(=O)c2ccc(C(=O)N3CCN(c4ccccc4F)CC3)cc2)CC1
The “hERG current change (%, negative = inhibition) at 1uM” value of the first is higher: 10.4% for the first, 9.06% for the second.

First: CCN(CC)CCOC(=O)C1(c2ccccc2)CCOCC1.Cl
Second: COC(=O)C1=C(c2cc3ccccc3s2)C[C@@H]2CC[C@H]1N2C(=O)N1CCOCC1
The “hERG current change (%, negative = inhibition) at 1uM” value of the first is higher: 12.5% for the first, -3.23% for the second.

First: O=C(COC(=O)Cn1[nH]c(=O)c2ccccc2c1=O)Nc1c(Cl)cccc1C(F)(F)F
Second: Cc1cc(C(F)(F)F)c(C#N)c(SCC(=O)Nc2nc3ccccc3s2)n1
The “hERG current change (%, negative = inhibition) at 1uM” value of the first is higher: 1.11% for the first, -2.86% for the second.

First: O=C(NCc1ccc2c(c1)OCO2)C1CCCN1C(=O)Nc1cccc(F)c1 (centres unmarked)
Second: Nc1nc(SCC(=O)NCc2ccc3c(c2)OCO3)n[nH]1
The “hERG current change (%, negative = inhibition) at 1uM” value of the first is lower: -7.36% for the first, 9.8% for the second.

Compared with `O=C(COC(=O)c1ccccc1SCC(=O)N1CCCC1)Nc1ccccc1`, `Cc1ccccc1OCC(=O)Nc1ccc(C)c(S(=O)(=O)N2CCCCCC2)c1` is higher in “hERG current change (%, negative = inhibition) at 1uM” value: 0.421% for the first, 7.47% for the second.

Going from `CC(C)c1cc(C(=O)N/N=C/c2ccoc2)cs1` to `C=CCOc1cccc(C(=O)NC(c2ccccc2)C(C)C)c1` (centres unmarked), the “hERG current change (%, negative = inhibition) at 1uM” value falls from 8.41% to 3.19%.

Going from `O=C(O)C1CCC(CN(Cc2cccc(Br)c2)C(=S)Nc2ccccc2F)CC1` (centres unmarked) to `NC(=O)C1CCN(c2nc(-c3ccccc3)nc3ccccc23)CC1`, the “hERG current change (%, negative = inhibition) at 1uM” value falls from 5.23% to -23.4%.

First: CCN1C(=O)/C(=C/c2nc3ccccc3c(=O)n2-c2ccccc2)c2ccccc21
Second: Nc1c(C(=O)NCc2cccnc2)sc(=S)n1-c1ccccc1
The “hERG current change (%, negative = inhibition) at 1uM” value of the first is lower: 10.7% for the first, 10.9% for the second.

Compared with `O=C(CCCN1C(=O)/C(=C\c2cccs2)SC1=S)Nc1ccccn1`, `CC(N=C1CC(C)(C)CC(=O)/C1=C(/O)CCCN1C(=O)c2ccccc2C1=O)C(=O)O` (centres unmarked) is lower in “hERG current change (%, negative = inhibition) at 1uM” value: 17.7% for the first, 11.1% for the second.

Going from `CC(=O)CSc1ncnc2nc[nH]c12` to `C=CCn1c(SCC(N)=O)nc(C)cc1=O`, the “hERG current change (%, negative = inhibition) at 1uM” value falls from 13.8% to 11.7%.

Going from `CCOc1ccc(S(=O)(=O)NCCc2cn3ccccc3n2)cc1` to `O=S(=O)(NCCSc1nnnn1-c1ccccc1)c1cccs1`, the “hERG current change (%, negative = inhibition) at 1uM” value rises from 10.8% to 11.5%.

Going from `CC(C)C1COS(=O)(=O)NC1CC(=O)SC(C)(C)C` (centres unmarked) to `Cc1ccc(S(=O)(=O)N2CCN(C(=O)COC(=O)c3ccc(C(C)(C)C)cc3)CC2)c(C)c1`, the “hERG current change (%, negative = inhibition) at 1uM” value falls from 11.3% to 7.73%.

First: CN(C)/C=N/c1sc2c(c1C#N)CCCCC2
Second: NC(=O)c1c(/N=C/c2cccs2)sc2c1CCCC2
The “hERG current change (%, negative = inhibition) at 1uM” value of the first is lower: 3.22% for the first, 10.9% for the second.

First: CC(C)c1cc(=O)n2[nH]c(N)nc2n1
Second: CCOCC(=O)Nc1nc2ccc(OC)cc2s1
The “hERG current change (%, negative = inhibition) at 1uM” value of the first is higher: 11.8% for the first, 3.59% for the second.

Compared with `Cc1c(C(=O)N2CCN(Cc3cccs3)CC2)oc2ccccc12`, `Cc1ccsc1C(=O)N1CCN(c2ncccn2)CC1` is higher in “hERG current change (%, negative = inhibition) at 1uM” value: 1.77% for the first, 9.08% for the second.

First: COc1ccc(CC(=O)O/N=C(\N)Cc2cccc3ccccc23)cc1
Second: CCCCCNC(=O)Cc1ccc(OC)cc1
The “hERG current change (%, negative = inhibition) at 1uM” value of the first is higher: 16% for the first, 6.88% for the second.

Compared with `Cc1cccc(-c2noc(CN(C)C(=O)c3ccoc3C)n2)c1`, `c1ccc(-c2noc(-c3ccc4c(c3)OCO4)n2)cc1` is lower in “hERG current change (%, negative = inhibition) at 1uM” value: 13.8% for the first, -4.97% for the second.

Going from `CC(=O)N1N=C(c2cccc([N+](=O)[O-])c2)OC1(C)CC(=O)Nc1ccccc1` (centres unmarked) to `CCCC(=O)Nc1ccc(C=C(C(C)=O)C(C)=O)cc1`, the “hERG current change (%, negative = inhibition) at 1uM” value falls from 5.24% to 4.62%.

Compared with `FC(F)(F)c1cc(NC2CCCCC2)ccn1`, `COc1nc(OC)nc(N2CCC(C(=O)Nc3cccc4c3CCCC4)CC2)n1` is lower in “hERG current change (%, negative = inhibition) at 1uM” value: 16.6% for the first, 5.93% for the second.

Going from `O=C(O)CCN1CC2([N+](=O)[O-])CC=C(OCCO)C([N+](=O)[O-])(C1)C2` (centres unmarked) to `Cc1ccc(S(=O)(=O)N2CCC(=O)N(CCO)CC2)cc1`, the “hERG current change (%, negative = inhibition) at 1uM” value falls from 15.2% to 10.1%.

Going from `CCOc1ccc(CCNC(=O)c2cccc(S(=O)(=O)N3CC(C)OC(C)C3)c2)cc1OCC` (centres unmarked) to `CCOC(=O)C1=C(CSc2nc(C)ccc2C#N)OC(N)=C(C#N)C1c1cccc(OC)c1OC` (centres unmarked), the “hERG current change (%, negative = inhibition) at 1uM” value rises from 2.46% to 9.38%.

Compared with `O=C(Nc1ccc2c(c1)OCCO2)c1cnc2ccccn2c1=O`, `CN(C(=O)c1cnccn1)c1c(N)n(Cc2ccccc2)c(=O)[nH]c1=O` is lower in “hERG current change (%, negative = inhibition) at 1uM” value: 8.81% for the first, 8.11% for the second.

Compared with `COc1ccc(N2CC(C(=O)O)CC2=O)cc1` (centres unmarked), `CN1CCN(c2ccc(NC(=O)c3ccc4c(c3)[nH]c(=O)n4Cc3ccc(F)cc3)cc2)CC1` is lower in “hERG current change (%, negative = inhibition) at 1uM” value: 18.9% for the first, 4.34% for the second.

Compared with `Cc1ccc(CN2CCN(Cc3cn(C)nc3C)CC2CCO)o1` (centres unmarked), `CCCOc1ccc(-c2c(C(=O)N/N=C/c3ccc(C)cc3)nnn2-c2nonc2N)cc1` is lower in “hERG current change (%, negative = inhibition) at 1uM” value: 15.5% for the first, 9.46% for the second.

First: CNC(=O)COC(=O)c1cccnc1SC
Second: CO/N=C(\C)C(Cc1ccc(Cl)nc1)Cc1ccc(Cl)nc1
The “hERG current change (%, negative = inhibition) at 1uM” value of the first is higher: 7.05% for the first, 2.23% for the second.
